A collection of fitness landscapes (doi:10.1126/science.1257360)
This is one part of the list.

B1: PhoQ; a variant is named by its letters at X, in order, P23837 (parent)
chain: MKKLLRLFFPLSLRVRFLLATAAVVLVLSLAYGMVALIGYSVSFDKTTFRLLRGESNLFYTLAKWENNKLHVELPENIDKQSPTMTLIYDENGQLLWAQRDVPWLMKMIQPDWLKSNGFHEIEADVNDTSLLLSGDHSIQQQLQEVREDDDDAEMTHSVAVNVYPATSRMPKLTIVVVDTIPVELKSSYMVWSWFIYVLSANLLLVIPLLWVAAWWSLRPIEALAKEVRELEEHNRELLNPATTRELTSLVRNLNRLLKSERERYDKYRTTLTDLTHSLKTPLXXLQXXLRSLRSEKMSVSDAEPVMLEQISRISQQIGYYLHRASMRGGTLLSRELHPVAPLLDNLTSALNKVYQRKGVNISLDISPEISFVGEQNDFVEVMGNVLDNACKYCLEFVEISARQTDEHLYIVVEDDGPGIPLSKREVIFDRGQRVDTLRPGQGVGLAVAREITEQYEGKIVAGESMLGGARMEVIFGRQHSAPKDE

Variants of: B1
Assay: enrichment ratio after two sorts for PhoP signalling (ratio (wild type AVST 3.29)); higher = more functional
Conditions: with PhoP (E. coli)

Variant | enrichment ratio
IYWF | ≤ 0.25
MESE | ≤ 0.25
IEHK | ≤ 0.25
IQHQ | ≤ 0.25
MLNY | ≤ 0.25
QCKR | ≤ 0.25
HNAW | ≤ 0.25
MMFY | ≤ 0.25
KFVI | ≤ 0.25
DSIS | ≤ 0.25
CLAY | ≤ 0.25
LDPY | ≤ 0.25
KGIV | ≤ 0.25
LRAF | ≤ 0.25
GYKI | ≤ 0.25
EANA | ≤ 0.25
KAGY | ≤ 0.25
IQWM | ≤ 0.25
IGMK | ≤ 0.25
KVFR | ≤ 0.25
AKCR | ≤ 0.25
KGGT | ≤ 0.25
TYPK | ≤ 0.25
NNQV | ≤ 0.25

Variant | enrichment ratio
ARSL | 0.309
MENP | ≤ 0.25
MYPT | ≤ 0.25
ASDI | ≤ 0.25
NSPK | ≤ 0.25
NCEQ | ≤ 0.25
TCLE | ≤ 0.25
ARST | ≤ 0.25
WDDG | ≤ 0.25
SSPF | ≤ 0.25
SSGI | 8.57
AIQI | 0.475
HSFW | ≤ 0.25
MMQF | ≤ 0.25
QLAC | ≤ 0.25
RLII | ≤ 0.25
DGTY | ≤ 0.25
PYNP | ≤ 0.25
IMQT | ≤ 0.25
WALV | 3.55
AQCG | 4.1
PRGW | ≤ 0.25
DCDF | ≤ 0.25
IASW | ≤ 0.25

Variant | enrichment ratio
RGPS | ≤ 0.25
IQDM | ≤ 0.25
LNVT | ≤ 0.25
PNGW | ≤ 0.25
HYKM | ≤ 0.25
LREH | ≤ 0.25
WSTF | ≤ 0.25
DAST | ≤ 0.25
IDKW | ≤ 0.25
CHAG | ≤ 0.25
EGQM | ≤ 0.25
TTWG | 12.2
DCMS | ≤ 0.25
MQMR | ≤ 0.25
DYAE | ≤ 0.25
DRNW | ≤ 0.25
KFMK | ≤ 0.25
KEMY | ≤ 0.25
DDWI | ≤ 0.25
KSLP | ≤ 0.25
QCGC | ≤ 0.25
IHLV | ≤ 0.25
NLLH | ≤ 0.25
PNKL | ≤ 0.25

Variant | enrichment ratio
TMSI | 14.2
RGNK | ≤ 0.25
FHPY | ≤ 0.25
ASDR | ≤ 0.25
NEMD | ≤ 0.25
MTSF | 5.24
NACG | ≤ 0.25
WNFN | ≤ 0.25
GWPV | ≤ 0.25
EKRS | ≤ 0.25
QSQE | ≤ 0.25
ANSF | 5.47
DLSE | ≤ 0.25
EHFE | ≤ 0.25
TGHH | 1.85
YNFM | ≤ 0.25
MKWY | ≤ 0.25
PDRG | ≤ 0.25
FIVG | ≤ 0.25
EHLW | ≤ 0.25
EVWF | ≤ 0.25
ARLK | ≤ 0.25
ILSP | ≤ 0.25
ERYF | ≤ 0.25

Variant | enrichment ratio
QYNP | ≤ 0.25
KGWL | ≤ 0.25
SLTD | ≤ 0.25
FIRC | ≤ 0.25
FQND | ≤ 0.25
YYDY | ≤ 0.25
LNFV | ≤ 0.25
PHKS | ≤ 0.25
HYIV | ≤ 0.25
GDHV | ≤ 0.25
HTSC | ≤ 0.25
KIHE | ≤ 0.25
IMCV | ≤ 0.25
LICA | ≤ 0.25
NDNF | ≤ 0.25
DFAY | ≤ 0.25
DPYG | ≤ 0.25
IWKT | ≤ 0.25
MGME | 13
RHKK | ≤ 0.25
RNRD | ≤ 0.25
WILT | ≤ 0.25
QVTY | ≤ 0.25
WQLP | ≤ 0.25

Variant | enrichment ratio
SGRT | ≤ 0.25
IANV | ≤ 0.25
VTGL | ≤ 0.25
YYHT | ≤ 0.25
WCCP | ≤ 0.25
MKYH | ≤ 0.25
VGNC | ≤ 0.25
PDYT | ≤ 0.25
HRRT | ≤ 0.25
SIHI | ≤ 0.25
AHMR | ≤ 0.25
MDTD | ≤ 0.25
LLSY | ≤ 0.25
YMMI | ≤ 0.25
WHPK | ≤ 0.25
VANV | ≤ 0.25
WYVG | ≤ 0.25
LCAL | ≤ 0.25
SRPN | ≤ 0.25
SWCC | ≤ 0.25
RWHL | ≤ 0.25
TLLR | ≤ 0.25
RVKT | ≤ 0.25
VANW | ≤ 0.25

Variant | enrichment ratio
DHVS | ≤ 0.25
MNFI | 2.14
VETI | ≤ 0.25
RAQQ | ≤ 0.25
GLNN | ≤ 0.25
MTYF | 7.02
NITR | ≤ 0.25
HWNA | ≤ 0.25
YAWM | ≤ 0.25
GKMM | ≤ 0.25
NSQF | ≤ 0.25
FYYN | ≤ 0.25
ADPQ | ≤ 0.25
YQHF | ≤ 0.25
YGFA | ≤ 0.25
HPIC | ≤ 0.25
ASSE | 10.8
TWNR | ≤ 0.25
FELS | 8.05
TLPM | ≤ 0.25
EVTN | ≤ 0.25
IFDL | ≤ 0.25
RPTV | ≤ 0.25
PTAL | ≤ 0.25

Variant | enrichment ratio
FECD | ≤ 0.25
MNKH | ≤ 0.25
GMPT | ≤ 0.25
PTGS | ≤ 0.25
HSCL | 7.06
AFEL | ≤ 0.25
EKAY | ≤ 0.25
RYTK | ≤ 0.25
KAQM | ≤ 0.25
LIIR | ≤ 0.25
VNDT | ≤ 0.25
DDKV | ≤ 0.25
SDCL | 1.46
TFGV | ≤ 0.25
TTQQ | 21.5
QLPG | ≤ 0.25
SREV | ≤ 0.25
ITPL | ≤ 0.25
SWHK | ≤ 0.25
SHKL | ≤ 0.25
FSFA | ≤ 0.25
WRNN | ≤ 0.25
GPPD | ≤ 0.25
EFWI | ≤ 0.25

Variant | enrichment ratio
GSSL | 8.1
LGRA | ≤ 0.25
ECPC | ≤ 0.25
GHRF | ≤ 0.25
NLED | ≤ 0.25
AQPE | ≤ 0.25
KMSE | ≤ 0.25
HDCY | ≤ 0.25
AFYD | ≤ 0.25
IWHW | ≤ 0.25
DARH | ≤ 0.25
MLVD | ≤ 0.25
FGIA | ≤ 0.25
ERLR | ≤ 0.25
AEHI | 1.21
IYYG | ≤ 0.25
TTEL | 16.6
VYCY | ≤ 0.25
ELVN | ≤ 0.25
FLMH | ≤ 0.25
VQDR | ≤ 0.25
MRMM | ≤ 0.25
QRTN | ≤ 0.25
ENNI | ≤ 0.25

Variant | enrichment ratio
RTHR | 0.299
ATPL | 5.31
VPFA | ≤ 0.25
TFGM | 1.64
EHIH | ≤ 0.25
SEGL | 3.21
TTCF | 17.7
EPLS | ≤ 0.25
IEHI | ≤ 0.25
MMYN | ≤ 0.25
TNCR | 0.942
NQSK | ≤ 0.25
KMHL | ≤ 0.25
RETV | ≤ 0.25
TDNM | ≤ 0.25
MPRP | ≤ 0.25
QIRG | ≤ 0.25
NAVH | ≤ 0.25
MNYM | 8.99
DELS | ≤ 0.25
HRMW | ≤ 0.25
ATPC | ≤ 0.25
MSEE | ≤ 0.25
RAKK | ≤ 0.25

Variant | enrichment ratio
QNES | ≤ 0.25
IKDA | ≤ 0.25
AQKG | ≤ 0.25
WAHW | ≤ 0.25
HLPW | ≤ 0.25
TSGD | 0.774
MRNL | ≤ 0.25
DGHL | ≤ 0.25
DQLA | ≤ 0.25
LWKK | ≤ 0.25
AEMG | 14.3
FYLV | ≤ 0.25
YHFM | ≤ 0.25
RTRA | ≤ 0.25
LYMR | ≤ 0.25
KQVY | ≤ 0.25
QATV | ≤ 0.25
EHGS | ≤ 0.25
EFRD | ≤ 0.25
PYYP | ≤ 0.25
TDWF | ≤ 0.25
MGNW | ≤ 0.25
TSAF | 7.11
EDGF | ≤ 0.25

Variant | enrichment ratio
WENH | ≤ 0.25
AHRQ | ≤ 0.25
GMFI | ≤ 0.25
GNHK | ≤ 0.25
MVNC | ≤ 0.25
TWLY | ≤ 0.25
PTLI | ≤ 0.25
VERT | ≤ 0.25
DTLK | ≤ 0.25
PNHN | ≤ 0.25
WGDQ | ≤ 0.25
QCNF | ≤ 0.25
YACF | ≤ 0.25
MQHM | ≤ 0.25
NISE | ≤ 0.25
RYQM | ≤ 0.25
YWKQ | ≤ 0.25
FFDY | ≤ 0.25
INYF | ≤ 0.25
DRLI | ≤ 0.25
FSGF | ≤ 0.25
VMVL | ≤ 0.25
RGWS | ≤ 0.25
YCTY | 0.34

Variant | enrichment ratio
HLSR | ≤ 0.25
VNAA | ≤ 0.25
TNMP | ≤ 0.25
QDLR | ≤ 0.25
LRRR | ≤ 0.25
SSIC | 5.56
TVKG | ≤ 0.25
RGMM | ≤ 0.25
KYHA | ≤ 0.25
QETN | ≤ 0.25
AVSP | ≤ 0.25
ENFD | ≤ 0.25
NPYE | ≤ 0.25
WADR | ≤ 0.25
RIIY | ≤ 0.25
LEQN | ≤ 0.25
KVGR | ≤ 0.25
RKYY | ≤ 0.25
